The other results are listed elsewhere or left out. Many values rest on one well or one pass, so single values are uncertain.
What follows are molecules tested on SkMel30 (assay: cell count relative to DMSO control; melanoma cells; higher = more viable cells). Details: library dose: standard library concentration; 72 h.
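Also: cells treated in 1,536-well plates, then fixed and DAPI-stained, with nuclei counted from automated high-throughput microscope images.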

Structure (SMILES)	cell count [%]
CN1CCN(c2ccc3nc(-c4c(N)c5c(F)cccc5[nH]c4=O)[nH]c3c2)CC1 [Dovitinib] + COc1cc2ncnc(Nc3ccc(Oc4ccccc4)cc3)c2cc1OC [SrcI1] (first compound 0.5 µM, partner dose 10 µM)	58.1
C=CCNC1=C2C[C@@H](C)C[C@H](OC)[C@H](O)[C@@H](C)/C=C(\C)[C@H](OC(N)=O)[C@@H](OC)/C=C\C=C(/C)C(=O)NC(=CC1=O)C2=O [Tanespimycin] + O=c1cc(-c2cccc3c2Sc2ccccc2S3)oc(N2CCOCC2)c1 [KU55933] (first compound 0.01 µM, partner dose 5 µM)	117
C=CCNC1=C2C[C@@H](C)C[C@H](OC)[C@H](O)[C@@H](C)/C=C(\C)[C@H](OC(N)=O)[C@@H](OC)/C=C\C=C(/C)C(=O)NC(=CC1=O)C2=O [Tanespimycin] + COc1ccc(COc2ccc(Cc3cnc(N)nc3N)cc2OC)cc1 [GW2580] (first compound 0.01 µM, partner dose 5 µM)	123
CNC(=O)c1cc(Oc2ccc(NC(=O)Nc3ccc(Cl)c(C(F)(F)F)c3)cc2)ccn1 [sorafenib] + N#Cc1c(O)c2c(-c3ccc(-c4ccccc4O)cc3)csc2[nH]c1=O [A769662] (first compound 2 µM, partner dose 10 µM)	125
CN1CCN(c2ccc3nc(-c4c(N)c5c(F)cccc5[nH]c4=O)[nH]c3c2)CC1 [Dovitinib] + O=C1NC(=O)/C(=C/c2ccc(-c3ccc(F)cc3O)o2)S1 [AS252424] (first compound 0.5 µM, partner dose 5 µM)	104
CNC(=O)c1cc(Oc2ccc(NC(=O)Nc3ccc(Cl)c(C(F)(F)F)c3)cc2)ccn1 [sorafenib] + O=C(O)C(=O)Nc1sc2c(c1C(=O)O)CCNC2 [TCS401] (first compound 2 µM, partner dose 8.33333 µM)	106
C[C@@H](Oc1cc(-c2cnn(C3CCNCC3)c2)cnc1N)c1c(Cl)ccc(F)c1Cl [Crizotinib] + COc1cc2ncnc(Nc3ccc(Oc4ccccc4)cc3)c2cc1OC [SrcI1] (first compound 1 µM, partner dose 10 µM)	84.4
CS(=O)(=O)CCNCc1ccc(-c2ccc3ncnc(Nc4ccc(OCc5cccc(F)c5)c(Cl)c4)c3c2)o1 [lapatinib] + Oc1nc(-c2ccc(C(F)(F)F)cc2)nc2c1CSCC2 [XAV939] (first compound 4 µM, partner dose 10 µM)	82.4
C=CCNC1=C2C[C@@H](C)C[C@H](OC)[C@H](O)[C@@H](C)/C=C(\C)[C@H](OC(N)=O)[C@@H](OC)/C=C\C=C(/C)C(=O)NC(=CC1=O)C2=O [Tanespimycin] + O=C(O)C(=O)Nc1sc2c(c1C(=O)O)CCNC2 [TCS401] (first compound 0.01 µM, partner dose 8.33333 µM)	127
C=CCNC1=C2C[C@@H](C)C[C@H](OC)[C@H](O)[C@@H](C)/C=C(\C)[C@H](OC(N)=O)[C@@H](OC)/C=C\C=C(/C)C(=O)NC(=CC1=O)C2=O [Tanespimycin] + Oc1nc(-c2ccc(C(F)(F)F)cc2)nc2c1CSCC2 [XAV939] (first compound 0.01 µM, partner dose 10 µM)	80.4
CNC(=O)c1cc(Oc2ccc(NC(=O)Nc3ccc(Cl)c(C(F)(F)F)c3)cc2)ccn1 [sorafenib] + CCc1ccc(CCOc2ccc(CC3SC(=O)NC3=O)cc2)nc1 [pioglitazone] (first compound 2 µM, partner dose 10 µM)	97.7
C[C@@H](Oc1cc(-c2cnn(C3CCNCC3)c2)cnc1N)c1c(Cl)ccc(F)c1Cl [Crizotinib] + O=S(=O)(c1ccccc1)N(CC(F)(F)F)c1ccc(C(O)(C(F)(F)F)C(F)(F)F)cc1 [T0901317] (first compound 1 µM, partner dose 7 µM)	71.2
CN1CCN(c2ccc3nc(-c4c(N)c5c(F)cccc5[nH]c4=O)[nH]c3c2)CC1 [Dovitinib] + O=C(O)C(=O)Nc1sc2c(c1C(=O)O)CCNC2 [TCS401] (first compound 0.5 µM, partner dose 8.33333 µM)	103
CS(=O)(=O)CCNCc1ccc(-c2ccc3ncnc(Nc4ccc(OCc5cccc(F)c5)c(Cl)c4)c3c2)o1 [lapatinib] + N#Cc1c(O)c2c(-c3ccc(-c4ccccc4O)cc3)csc2[nH]c1=O [A769662] (first compound 4 µM, partner dose 10 µM)	83.3
